This is an account of results in patent US20240150487A1, “COMBINATIONS WITH AN ANTI HUMAN CD39 ANTIBODY, AN ANTI HUMAN PD-1 ANTIBODY, AND CHEMOTHERAPY IN GASTRIC CANCER” (Trishula Therapeutics Inc., priority 2022, published 2024).

Series [1] is described as follows: Tolerability of the anti-human CD39 antibody (dose escalation). In kind it is in vivo. Conditions: doses up to 40 mg/kg. Here is the method:
An RP2D of the anti human CD39 antibody was determined to be a 40 mg/kg loading dose 7 days prior to Cycle 1 Day 1 and then either 30 mg/kg Q3W or 20 mg/kg Q2W.

Series [2] is described as follows: Clinical PK of the anti-human CD39 antibody (dose escalation). Type of series: in vivo. Conditions: 40 mg/kg Q3W; functional level based on preclinical human functional assays (IL-2 from PBMCs, inflammasome activation). Here is the method:
After the completion of the dose escalation portion of the study, the totality of the PK data was used for PK modeling for the RP2D. Based on simulations, it was determined that a loading dose of 40 mg/kg one week prior to Cycle 1, Day 1 dosing of 30 mg/kg Q3W or 20 mg/kg Q2W will provide a minimal functional trough level in greater than 80% of subjects before Cycle 1, Day 1 and in cycles thereafter.

B1: anti-human CD39 antibody: anti-human CD39 antibody; VH SEQ ID NO: 25, VL SEQ ID NO: 29; heavy chain SEQ ID NO: 33, light chain SEQ ID NO: 34 (antibody)
heavy: QVQLVQSGAEVKKPGASVKVSCKASGYTFKSYEMHWVRQAPGQGLEWMGRINPSVGSTWYAQKFQGRVTMTRDTSTSTVYMELSSLRSEDTAVYYCARGKREGGTEYLRKWGQGTLVTVSSASTKGPSVFPLAPCSRSTSESTAALGCLVKDYFPEPVTVSWNSGALTSGVHTFPAVLQSSGLYSLSSVVTVPSSSLGTKTYTCNVDHKPSNTKVDKRV[human IgG4 Fc with S228P (EU numbers) cut from this listing]
light: EIVLTQSPGTLSLSPGERATLSCRASQSVASSYLAWYQQKPGQAPRLLIYGASNRHTGIPDRFSGSGSGTDFTLTISRLEPEDFAVYYCQQYHNAITFGGGTKVEIKRTVAAPSVFIFPPSDEQLKSGTASVVCLLNNFYPREAKVQWKVDNALQSGNSQESVTEQDSKDSTYSLSSTLTLSKADYEKHKVYACEVTHQGLSSPVTKSFNRGEC
On to B1, for which the tolerability entry in series [1] is listed as “well tolerated”. Further, the trough level entry in series [2] is given as “achieved a minimal functional trough level”.
